{
  "source": "the RNAGym collection of RNA variant scans (doi:10.1093/nar/gkz1192)",
  "parents": {"B1": {"name": "CPEB3 Ribozyme (parent)", "chain": "UAACAGGGGGCCACAGCAGAAGCGUUCACGUCGCAGCCCCUGUCAGAUUCUGGUGAAUCUGCGAAUUCUGCUGUAUAUCUC"}},
  "note": "Read counts are not given, so values of variants with three or more changes are uncertain.",
  "data": [
    {"variants_of": "B1", "assay": "self-cleavage, relative activity (ratio to wild type); higher = more cleavage; in vitro, sequencing", "method_in_brief": "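Barcoded CPEB3 ribozyme mutants, produced by rounds of error-prone PCR, self-cleaved while being transcribed with T7 RNA polymerase for 5 hours at 37°C and during a subsequent 15 min DNase I step before EDTA was added. Sequencing of template-switched cDNA on Illumina gave cleaved and total reads, and DNA sequencing assigned barcodes to variants. Each variant's relative activity is its cleaved/total read fraction divided by the unmutated ribozyme's fraction, averaged across three batches. A variant needed a minimum of 5 reads.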", "values": [
      {"variant": "UAACAGGGGGCCACAGCGGAAGCGUUCACGUCGCAGCCCCCGUCAGAUUCUGGUGGAUCUGCGAAUUCGGCCGUAUAUCUC", "self-cleavage": 0.34},
      {"variant": "UAACAGGGGGCCACAGCGGAAGCGUUCACGUCGCAGCCCCAGUCAGAUUCUGGUGAAUCUGCGAAUUCUGCCGUAUAUCCC", "self-cleavage": 0.25},
      {"variant": "UAACAGGGGGCCACAGCGGAAGCGUUCACGCCGCAGCCCCCGUCAGAAUCUGGUGAAUCUGCGAAUUCUGCUGUAUAUCUC", "self-cleavage": 0.35},
      {"variant": "UAACAGGGGGCCACAGCGGAAGCGUUCACGCCGCAGCCCCUGUCAGAUUCUGGUAAAUCUGCGAAUACUGCUGUAUAUCUC", "self-cleavage": 0.11},
      {"variant": "UAACAGGGGGCCACAGCGGAAGCGUUCACGUCGCAGCCCCCGUCAGAUUCUGGUGAAUCUGCGAAUUCUGCUGUAUACCUC", "self-cleavage": 0.77},
      {"variant": "UAACAGGGGGCCACAGCGGAAGCGUUCACGCCGCAGCCCCUGUCAGAUUCUGAUGAAUCUGCGGAUUCUGCUGAAUAUCUC", "self-cleavage": 0.11},
      {"variant": "UAACAGGGGGCCACAGCGGAAGCGUUCACGUCGCAGCCCCUGACAGAUUCCGGUGAAUCAGCGAAUUCUGCUGUAUAUCUC", "self-cleavage": 0.31},
      {"variant": "UAACAGGGGGCCACAGCGGAAGCGUUCACGUCGCAGCCCCAGUCAGAUUCAGGUGAAUCUGCGAAUUCUGCUGUAUAUCUC", "self-cleavage": 0.37},
      {"variant": "UAACAGGGGGCCACAGCGGAAGCGUUCACGCCGCAGCCCCUGUCAGAUUCUGGUGAAUCUGCGAAUUCAGCCGUAUAUCUC", "self-cleavage": 0.18},
      {"variant": "UAACAGGGGGCCACAGCGGAAGCGUUCACGCCGCAGCCCCAGUCAGAUCCUGGUGAAUCUGCGAAUUAUGCCGUAUAUCUC", "self-cleavage": 0.09},
      {"variant": "UAACAGGGGGCCACAGCGGAAGCGUUCACGUCGCAGCCCCAGUCGGAUUCUGGUGUAUCCGCGAAUUCUGCUGUAUAUCUC", "self-cleavage": 0},
      {"variant": "UAACAGGGGGCCACAGCGGAAGCGUUCACGUCGCAGCCCCCGUCAGAUUCUGGUGAAUCUGCGAAUUCUGCUGUAUAUCCC", "self-cleavage": 0.96},
      {"variant": "UAACAGGGGGCCACAGCGGAAGCGUUCACGUCGCAGCCCCCGUUAGAUUCUGGUGAAUCUGCGAAUCCUGCUGUAUAUCUC", "self-cleavage": 0.18},
      {"variant": "UAACAGGGGGCCACAGCGGAAGCGUUCACGCCGCAGCCCCUGUCAGAUUCUGGUGAAUCUGCGAAUUCUGCUGUAUACCUC", "self-cleavage": 0.24},
      {"variant": "UAACAGGGGGCCACAGCGGAAGCGUUCACGUCGCAGCCCCCGUCAGAUUCUGGUGAAUCUGCGAAUUCUGCUGCAUAUCUC", "self-cleavage": 0.48},
      {"variant": "UAACAGGGGGCCACAGCGGAAGCGUUCACGUCGCAGCCCCCGUCAGAUUCUGGUGAAUGUGCGAAUUCUGCUGUAUAUCUC", "self-cleavage": 0.24},
      {"variant": "UAACAGGGGGCCACAGCGGAAGCGUUCACGCCGCAGCCCCAGUCAGAUUCUGGUGAAUCUGCGAAUUCUGCUGUACGUCUC", "self-cleavage": 0.26},
      {"variant": "UAACAGGGGGCCACAGCGGAAGCGUUCACGUCGCAGCCCCAGUCAGAUUCUGGCGAAUCUGCGAAUUCUGCUGUAUAUCUC", "self-cleavage": 0.11},
      {"variant": "UAACAGGGGGCCACAGCGGAAGCGUUCACGCCGCAGCCCCUGUCAGAUUCUGGUGAAUCAGCGAAUUCUGCUGUAUAUCCC", "self-cleavage": 0.17},
      {"variant": "UAACAGGGGGCCACAGCGGAAGCGUUCACGUCGCAGCCCCCGUCAGAUUCUGGUGAAUCUGCGAAUUCUGCCGUAUAUCUC", "self-cleavage": 0.37},
      {"variant": "UAACAGGGGGCCACAGCGGAAGCGUUCACGUCGCAGCCCCUGACAGAUUCAGGUGAAUCUGCGAAUUCUGCUGUAUAUCUC", "self-cleavage": 0.49},
      {"variant": "UAACAGGGGGCCACAGCGGAAGCGUUCACGUCGCAGCCCCCGCCAGAUUCUGGUGAACCUGCGAAUUCUGCUGAAUAUCUC", "self-cleavage": 0.35},
      {"variant": "UAACAGGGGGCCACAGCGGAAGCGUUCACGCCGCAGCCCCUGUCAGAUUCUGGUGAAUCUGCGAAUUCUGCUGUAUGUCUC", "self-cleavage": 0.1},
      {"variant": "UAACAGGGGGCCACAGCGGAAGCGUUCACGUCGCAGCCCCUGACAGAUUCCGCUGUAUCUGCGAAUUCGGCGGUAUAUCUC", "self-cleavage": 0.09},
      {"variant": "UAACAGGGGGCCACAGCGGAAGCGUUCACGUCGCAGCCCCCGUCAGAUUCUGGUGAGUCUGCGAAUUCUGCCGUAUAUCUC", "self-cleavage": 0.64},
      {"variant": "UAACAGGGGGCCACAGCGGAAGCGUUCACGUCGCAGCCCCUGACAGAAUCAGGUGAAUCGGCGAAUUCUGCUGUAUAUCUC", "self-cleavage": 0.06},
      {"variant": "UAACAGGGGGCCACAGCGGAAGCGUUCACGUCGCAGCCCCCGUCAGAUUCCGGUGAAUCUGCGAAUUCUGCUGUAUAUCAC", "self-cleavage": 0.6},
      {"variant": "UAACAGGGGGCCACAGCGGAAGCGUUCACGUCGCAGCCCCAGUCAGAUUCUGGUGAACCUGCGAAUUCAGCCGUAUAUCUC", "self-cleavage": 0.08},
      {"variant": "UAACAGGGGGCCACAGCGGAAGCGUUCACGCCGCAGCCCCUGUCAGAUUCUGGUGGAUCUGCGAAUUCCGCUGUAUAUCUC", "self-cleavage": 0.83},
      {"variant": "UAACAGGGGGCCACAGCGGAAGCGUUCACGUCGCAGCCCCCGUCAGAUUCUGGUGAAUCUGCGGAUUCUGCUGUAUAUCUC", "self-cleavage": 0.27},
      {"variant": "UAACAGGGGGCCACAGCGGAAGCGUUCACGUCGCAGCCCCCGUCAGAUUCUGGUGAAUCUGCGUAUUCUGCUGUAUAUCUC", "self-cleavage": 0.18},
      {"variant": "UAACAGGGGGCCACAGCGGAAGCGUUCACGUCGCAGCCCCAGUCAGAUUCUGGUGAAUCUGCGAAUUCUGCUGUAUAUCAC", "self-cleavage": 0.31},
      {"variant": "UAACAGGGGGCCACAGCGGAAGCGUUCACGUCGCAGCCCCAGUCAGAUUCUGGUGAAUCUGCGAAUUCUGCUGUAUAUCCC", "self-cleavage": 0.24},
      {"variant": "UAACAGGGGGCCACAGCGGAAGCGUUCACGUCGCAGCCCCUGACGGAUUCUGGUGGAUCUGCGAAUUCUGCUGUAUAUCUC", "self-cleavage": 0.27}
    ]}
  ]
}
